# From paper PMC4336329 (PLoS ONE, 2015)
# The campaign covered roughly 310,000 compounds. About 14,000 (4.5%) showed an effect of 50% or more. The effect is printed as a negative number. The list shows a part of the results.
# Biological target: human ether-à-go-go-related gene (hERG) potassium channel (human, UniProt Q12809)
# Assay: primary screen, population patch clamp on CHO cells stably expressing hERG
# 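Note: peak tail current of the secondary pulse compared with the same well before compound.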
# human ether-à-go-go-related gene (hERG) potassium channel, sequence (Q12809 whole entry, looked up): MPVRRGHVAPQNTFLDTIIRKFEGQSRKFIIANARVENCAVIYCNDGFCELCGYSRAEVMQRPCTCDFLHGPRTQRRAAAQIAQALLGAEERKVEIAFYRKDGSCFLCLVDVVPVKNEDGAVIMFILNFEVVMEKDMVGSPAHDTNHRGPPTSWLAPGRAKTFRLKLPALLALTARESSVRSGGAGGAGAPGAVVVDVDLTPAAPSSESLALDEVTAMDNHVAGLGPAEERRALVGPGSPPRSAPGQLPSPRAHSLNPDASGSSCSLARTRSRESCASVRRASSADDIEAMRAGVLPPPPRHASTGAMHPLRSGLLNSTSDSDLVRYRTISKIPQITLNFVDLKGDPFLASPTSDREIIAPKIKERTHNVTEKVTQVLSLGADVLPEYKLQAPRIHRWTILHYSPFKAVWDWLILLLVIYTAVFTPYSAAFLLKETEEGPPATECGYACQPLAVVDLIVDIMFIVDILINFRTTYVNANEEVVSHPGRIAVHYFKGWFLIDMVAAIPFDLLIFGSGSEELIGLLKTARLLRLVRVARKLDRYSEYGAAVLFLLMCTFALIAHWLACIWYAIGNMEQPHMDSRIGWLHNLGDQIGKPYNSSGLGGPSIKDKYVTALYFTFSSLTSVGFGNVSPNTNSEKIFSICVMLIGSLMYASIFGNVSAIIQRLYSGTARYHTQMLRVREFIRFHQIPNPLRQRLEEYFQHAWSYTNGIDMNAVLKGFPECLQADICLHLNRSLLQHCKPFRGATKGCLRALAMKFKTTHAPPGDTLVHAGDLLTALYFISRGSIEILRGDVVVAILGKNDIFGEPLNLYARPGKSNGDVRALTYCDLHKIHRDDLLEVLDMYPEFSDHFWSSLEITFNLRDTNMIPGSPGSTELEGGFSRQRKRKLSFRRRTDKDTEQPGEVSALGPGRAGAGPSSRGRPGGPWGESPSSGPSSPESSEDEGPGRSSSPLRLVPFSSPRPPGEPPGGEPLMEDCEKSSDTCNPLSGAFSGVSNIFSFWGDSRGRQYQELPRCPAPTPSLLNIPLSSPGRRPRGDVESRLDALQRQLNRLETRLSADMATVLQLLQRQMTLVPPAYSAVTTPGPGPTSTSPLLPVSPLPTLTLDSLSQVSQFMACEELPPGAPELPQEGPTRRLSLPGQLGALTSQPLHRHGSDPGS
row,SMILES,"hERG current change (%, negative = inhibition) at 10uM [%]"
1,Cc1ccc(S(=O)(=O)NCCNC(=O)N2CCOCC2)cc1,6.05
2,CC(C)COc1nc2ccccc2nc1N1CCN(C)CC1,-72.9
3,CC(=O)Nc1cccc(C(=O)OCC(=O)NC(C)c2ccc(F)cc2)c1 (stereo not drawn),13.7
4,OCCNc1nc2nonc2nc1NCCO,11
5,COc1cccc2cc(/C(=N/O)c3ccccc3)oc12,-10.9
6,CCOC(=O)Cn1cnc2scc(-c3ccccc3)c2c1=O,11.3
7,Cc1ccc(S(=O)(=O)NC(CC(=O)O)c2ccccc2)cc1 (stereo not drawn),15.5
8,O=C(NCc1ccccc1F)C1CCCN1C(=O)Nc1ccccc1 (stereo not drawn),7.14
9,O=C(CSc1nnc(CNC(=O)c2cccc(C(F)(F)F)c2)o1)NCC1CCCO1 (stereo not drawn),11.8
10,Cc1ccc(C(=O)Nc2cccc(NC(=O)c3ccc(C)c([N+](=O)[O-])c3)n2)cc1[N+](=O)[O-],2.38
11,CCOC(=O)/C=C1\SCC(=O)N1Cc1nnc(-c2ccccc2Br)o1,-11.3
12,COCCN(C(=O)CSc1nnc(Nc2ccc(C)cc2)s1)c1c(N)n(CC(C)C)c(=O)[nH]c1=O,-7.66
13,CCOc1ccc(S(=O)(=O)Nc2ccc(C(=O)N/N=C(\C)c3ccc(-n4ccnc4)cc3)cc2)cc1,-7.35
14,CCOc1ncccc1C(=O)Nc1cc(C(F)(F)F)ccc1N1CCOCC1,0.832
15,O=C(Nc1c(Cl)ccc2nsnc12)c1ccc([N+](=O)[O-])o1,5.18
16,COC(=O)C1=C(c2c(C)noc2C)C[C@@H]2CC[C@H]1N2C(=O)NC(C)C,12.3
17,COc1ccccc1NS(=O)(=O)c1ccc(NC(=O)c2nc3nc(C)cc(C(F)F)n3n2)cc1,-13.8
18,COc1ccc(NC(=O)c2ccc(Cl)nc2)cc1S(=O)(=O)N1CCCCC1,-59
19,COc1ccc(C(=O)C2CCCN(Cc3cn(C)nc3-c3ccccc3)C2)cc1F (stereo not drawn),-72.4
20,CCOC(=O)CSc1nc2ccsc2c(=O)n1C1CCN(C(=O)OCC)CC1,-17.3
21,CC(C)(C)NS(=O)(=O)c1ccc(OCC(=O)NCc2ccco2)cc1,10.6
22,CCOC(=O)C1=C(C)NC(=O)NC1c1ccc(OCC(=O)N2CCCCC2)cc1 (stereo not drawn),7.81
23,Cc1ccc(C)c(NC(=O)C2CCCN(S(=O)(=O)c3ccc4[nH]c(=O)ccc4c3)C2)c1 (stereo not drawn),6.02
24,COc1cc(NC(=O)Cn2cnc3ccccc3c2=O)c(OC)cc1Cl,12.7
25,O=C(NCCc1ccccc1)Oc1ccc(Cl)cc1,1.75
26,Cc1ccc(C)c2sc(N3CCN(C(=O)c4ccc([N+](=O)[O-])o4)CC3)nc12,-15.1
27,COc1ccc(CCN(C(=O)COc2ccccc2)c2nc(-c3ccccc3)cs2)cc1OC,1.02

row,SMILES,"hERG current change (%, negative = inhibition) at 10uM [%]"
1,COc1cccc(/C=N/Nc2nc3ccccc3[nH]2)c1O,5.17
2,O=C(NCc1ccc(Cl)cc1)C(=O)NCC1OCCN1S(=O)(=O)c1cc(F)ccc1F (stereo not drawn),0.656
3,COc1ccc2oc(C(=O)OCC(=O)NC(C)c3ccccc3)c(C)c2c1 (stereo not drawn),-24.7
4,Clc1ccc2c(c1)Nc1ccccc1CC2,-1.79
5,O=C(CSc1ccc2c(c1)OCCO2)NCCN1C(=O)CSC1=O,5.59
6,Cc1noc(NS(=O)(=O)c2ccc(NC(=O)C(CC(C)C)N3C(=O)c4ccccc4C3=O)cc2)c1C (stereo not drawn),5.57
7,Cc1ccc(OCC(=O)c2cc(C)n(C)c2C)c([N+](=O)[O-])n1,-19.1
8,Cc1ccc(S(=O)(=O)N(C)c2ccc(OCC(=O)Nc3nc4ccccc4s3)cc2)cc1,17.8
9,Cn1c(=O)n(CCCOc2ccc(Br)cc2)c2ccccc21,-3.96
10,CCN(CC)c1nc(-c2ccccc2)nc2ccccc12.Cl,-32.5
11,Br.N=C1c2ccccc2CN1NC(=O)c1cccc(S(=O)(=O)N2CCCC2)c1,12.6
12,O=C(Nc1ccc(Oc2cccnc2)cc1)C1CCCCN1Cc1ccc(CO)o1 (stereo not drawn),1.59
13,O=C(O)c1cccnc1Sc1ccc(Br)cc1,-24.5
14,COc1ccc(CNCC(O)(c2ccccc2)c2ccccc2)cc1OC,-60
15,COc1ccc(NC(=O)CSc2nc(N)c3cc4c(nc3n2)CCCC4)cc1,-15.7
16,COCCCN(Cc1ccccn1)S(=O)(=O)Cc1ccccc1,4.48
17,COc1ccc(/C=N/NC(=O)Cn2cnc3c2c(=O)n(C)c(=O)n3C)c(OC)c1OC,10.6
18,O=S(=O)(NCc1ccccc1)[C@@H]1CC2C=CC1C2 (stereo partly drawn),1.81
19,COc1ccc(OC)c2c(C)cc(N3CCCCCC3)nc12,-12.5
20,CCN(CC)C(=O)CN(c1cccc([N+](=O)[O-])c1)S(=O)(=O)c1ccccc1,-26.2
21,CC1CN(C(=O)c2cc3cc(Cl)cc(Cl)c3oc2=O)CC(C)O1 (stereo not drawn),-6.75
22,CCNc1ccc(S(=O)(=O)N(C)C)cc1NCC(=O)Nc1ccc(Br)cc1F,-33.3
23,Cc1cc(NC(=O)CSc2nnc(C)n2-c2ccccc2)no1,39.2
24,Nc1nc(NCc2ccco2)nc(N2CCCC2)c1[N+](=O)[O-],-13.5
25,CCOC(=O)c1c(C)n(C)c2ccc(OC(=O)c3ccc([N+](=O)[O-])cc3)cc12,24.7
26,Cc1cc2ccccn2c1C(=O)c1ccccc1Br,3.13
27,O=C(C1=NN[C@@H]2C(=O)N(Cc3ccccc3)C(=O)[C@H]12)c1ccc(F)cc1,7.44
